# According to the supplement of paper PMC11417369:
# ± gives the standard deviation of the averaged measurements. The list shows a part of the results.
# Test system: PfAP2-I AP2 domain 3 (GST-tagged)
# Assay: gcPBM binding intensity (ln(normalized median fluorescence intensity)); higher = stronger DNA binding
# In short: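 For binding intensity, the highest Masliner-normalised natural-log median intensity across replicate spots of either probe orientation was taken. Protein bound to the array was stained with Alexa488 anti-GST antibody and scanned at 488 nm. The protein, GST-tagged P. falciparum DNA-binding domains from E. coli at about 25 μg on average, had been applied for 1 h to an Agilent 4 × 180k array of primer-extended double-stranded 36-bp intergenic genomic probes and negative controls.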
row,Sequence,gcPBM binding intensity (ln)
1,TAGTATTTATATGTTATATATATAAAATAATACAGT [XGTACX_negctrl_site571],7.75 ± 0.59
2,TATATAGAATTATATGCATGTTCAAAAAAATACAAC [TGCATGCA_site431],8.01 ± 0.47
3,ATATCTAATAAAAATACACACACATATGATTTGTGA [CACACA_site8558],7.53 ± 0.38
4,TATTTTTATTTATAACGTACGAAAAATGTATATAAT [XGTACX_site703],7.96 ± 0.35
5,GGTGTATGTTAAAGGAGTACATATATATATATATAT [XGTACX_site7727],9.36 ± 0.45
6,CATACACATTTCATATGTACATAGATTGAAGGGAAG [XGTACX_site116],7.74 ± 0.5
7,TTTTATATATAATTCACACAAAAAAGATACATAAGA [CACACA_site5332],8.01 ± 0.51
8,TATATAAAAATATGTTGTACGCATTTATAAATATAT [XGTACX_site3758],7.84 ± 0.25
9,ATTTTTTTTTTTTTTTTTTTTTTTTTTGAATTCACA [CACACA_negctrl_site982],7.66 ± 0.54
10,TAAGCAAAAATAATTACACACAAATTTATAAAAAAT [CACACA_site3377],7.58 ± 0.64
11,ATAAAAATATAATTGAGTACATATGAATAGTCCTAT [XGTACX_site6281],7.58 ± 0.46
12,ATTTTGTTTTTTTTTGCACACCATAAGGAGTGTAGG [CACACA_site1414],9.715 ± 0.035
13,ACAACACATATTCATCGTACATGTATTAGGAAGACA [XGTACX_site1859],7.83 ± 0.58
14,TCATATATTTTATACATACACACATATATATATTTT [CACACA_site3941],7.87 ± 0.53
15,ACGTTATACACAGTACGTACATAACTATCTAAATGT [XGTACX_site5068],8.02 ± 0.47
16,TGGAGGTCAGTTCACAGTACCCAGGAAATCTGCGGA [XGTACX_site2556],8.3 ± 0.93
17,TATAACATAGGACACACACACATACATACACAAAAA [CACACA_site5062],8.125 ± 0.078
18,TTCACTTTTTTTTTTTTTTTTTTTTTTTTTTTTATT [GTGCAC_negctrl_site350],7.64 ± 0.52
19,ATGCATAATATACTCTTACACACCATTTCTATATAC [CACACA_site1461],8.29 ± 0.53
20,AAAAAAAAAAAACACACACACACACCCACCCATACA [CACACA_site2859],8.29 ± 0.69
21,TTTACAACATCAAAATGTACGCATTATTATTATTAA [XGTACX_site3017],7.68 ± 0.25
22,TGTGTATAAATATACACACACATATAAATATTTTAA [CACACA_site7005],7.62 ± 0.31

row,Sequence,gcPBM binding intensity (ln)
1,TATTTAAAAAATAATACACACATAATATAACAAAAT [CACACA_site3174],8.16 ± 0.46
2,ACATATAATATAAATTGTACATATAAATATATTATT [XGTACX_site4268],7.66 ± 0.44
3,AAAAAAAAAAAAAAATATATATATATATACATACAT [CACACA_negctrl_site317],8.23 ± 0.64
4,TTTTTCTTTTTTTCTTTTTTTATAAAACTTAATTGT [CACACA_negctrl_site384],7.59 ± 0.52
5,TATTAATTATATTTATGTACATAATCATATTATTAT [XGTACX_site7938],7.66 ± 0.39
6,AGAAATATATATATATATATATATATATATATATAT [TGCATGCA_negctrl_site375],9.62 ± 0.3
7,AGTAACAAAAGAAAAAAATATGCAAACATATATATA [XGTACX_negctrl_site468],7.89 ± 1.1
8,TTCATTTTTTGCTTTCAACACACATACAATATATAT [CACACA_site9369],8.01 ± 0.49
9,GGTATACACAAGTATACACACATATATATATATATA [CACACA_site9063],9.28 ± 0.58
10,ACAAAGTTATAATTCTTGCACTTTAAGGTTCATTTA,8.65 ± 0.42
11,ATAAATATCTAGGGTTCACACATTATATATCTGTAT [CACACA_site5702],7.51 ± 0.61
12,CGTGAATATATGATATGTACTTATAAAAATTTGTGC [XGTACX_site5480],7.83 ± 0.52
13,TTTTCCTCTTAAAATATACACACTGATTTAAGAAAA [CACACA_site3301],7.7 ± 0.49
14,ACGTAATAAAATAGTTGTACAACTTTTTATAATATA [XGTACX_site4393],8.01 ± 0.32
15,TTTTTTTTTTTTTTTTTTTTTTTTTTGTTCAGGCCT [GTGCAC_negctrl_site143],8.28 ± 0.99
16,TCATAAATATGAAAAAGTACAAAGGTAGATTTTGAA [XGTACX_site4535],7.69 ± 0.4
17,TATATATATATTATATGTACGTATGTATGTATATAT [XGTACX_site6451],8.7 ± 0.35
18,AAACGATTAATGTGTACACACATAGTTATAAACCTA [CACACA_site2110],7.85 ± 0.3
19,TTTTGGATTGAGGACCTTTTTATAGAATTATGTTTT [TGCATGCA_negctrl_site544],7.49 ± 0.66
20,ATATATAATTTTTACACACGCAATAAATATATATAT [CACACA_site4283],8.76 ± 0.25
21,GTTTCCTTAATATTCACACACATATATATAATATAT [CACACA_site1856],8.22 ± 0.54
22,ATGTTATAAGATTTATGTACACACATATACACACCT [XGTACX_site1316],8.35 ± 0.21
